# Assay results as given in PubChem BioAssay AID686979 (National Center for Advancing Translational Sciences (NCATS), 2013).
# Hit rate of the full screen: of about 420,000 compounds, about 50,000 (12%) were called active. Inconclusive results, whose numbers are uncertain, are shown with a selection of clear calls. Calls follow the shape of the dose curve; as a rule, active = well fitted inhibition curve with a large enough effect; inconclusive = small, poorly fitted or top-dose-only effect; inactive = flat fitted curve, though single readings scatter. Potencies of inconclusive entries are doubtful fits and often do not repeat.
# Test: qHTS for Inhibitors of human tyrosyl-DNA phosphodiesterase 1 (TDP1): qHTS in cells in presence of CPT; also: nearly all actives have a fitted effect of over 55% in size
# Conditions: chicken DT40 Tdp1-/-;hTDP1 cells + 20 nM CPT, ATP luminescence, 48 h; activity change, negative = growth inhibition: at 46.2 µM (top of the series) unless noted
# In short: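 Chicken DT40 Tdp1-/- cells complemented with human TDP1, 400 cells/well, exposed to compounds plus 20 nM camptothecin for at least 48 h at 37 C; viability read as ATP content by CellTiter-Glo luminescence.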
# % is scaled to controls: 0 for no effect and ±100 for the full control effect; potency is read from the fitted curve at half-maximal effect; tags tell the direction and shape of the fitted curve.
SMILES,Potency,"activity change, negative = growth inhibition"
CC1(C)CC(=O)c2c(n(S(=O)(=O)c3ccccc3)c3ccc(NS(=O)(=O)c4ccccc4)cc23)C1,"inconclusive: 29.1 µM [inhibitor, single point]",
COC(=O)[C@]1(Cc2ccccc2)N[C@H](CN(C)C(=O)Nc2ccc(C)cc2)[C@@H]2C(=O)N(C)C(=O)[C@@H]21,,inactive: 2%
CC(C)CC(CO)N1CCN(C(=O)c2cccc(C(F)(F)F)c2)CCC1=O (configuration not stated),,inactive: 5.19%
O=C(CSc1nnc(-c2ccco2)c(-c2ccco2)n1)c1ccccc1,"inconclusive: 6.51 µM [inhibitor, partial curve]",
CN(Cc1ccccc1)C(=O)COC(=O)c1ccc(=O)n(Cc2ccccc2)n1,,inactive: 15.5%
O=C(CN1C(=O)c2ccccc2S1(=O)=O)c1ccccc1,,inactive: 3.01%
O=C(N/N=C/c1ccc(F)cc1)c1cc[n+]([O-])cc1,,inconclusive: -32.9% [inhibitor]
CC(C)c1ccc(NC(=O)c2ccc(=O)n(Cc3ccccc3)c2)cc1,active: 16.4 µM,
CCOC(=O)C1=CN(Cc2cccc(I)c2)S(=O)(=O)N(C)C1C (configuration not stated),"inconclusive: 29.1 µM [inhibitor, single point]",
COc1ccccc1C(=O)NCCCNc1nc2cc(C)cc(C)c2cc1C#N,"inconclusive: 18.4 µM [inhibitor, single point]",
CC1Cc2ccccc2N1S(=O)(=O)c1cccc(C(=O)NC2CC2)c1 (configuration not stated),active: 18.4 µM,
CCOc1ccc(NC(=O)COn2nnc3ccc(S(=O)(=O)N4CCOCC4)cc32)cc1,"inconclusive: 29.1 µM [inhibitor, single point]",
CCOC(=O)C(NCc1ccccn1)(NC(=O)c1cccnc1)C(F)(F)F (configuration not stated),,inactive: -0.866%
COc1cc2oc3ccccc3c(=O)c2cc1OC,"inconclusive: 29.1 µM [inhibitor, single point]",
COc1ncccc1-c1cc2nc(NCCCN(C)C)n(C)c(=O)c2s1,active: 8.2 µM,
O=C1CCN(Cc2ccccc2)C=C1c1ccc2ccccc2c1,,inactive: -29.7%
O=C(c1cccc([N+](=O)[O-])c1)c1ccc2c(c1)C(=O)NC2=O,"inconclusive: 2.91 µM [inhibitor, full curve]",
O=C(CSc1nc2nc(-c3cccs3)cc(C(F)(F)F)c2c(=O)[nH]1)Nc1c(F)c(F)c(F)c(F)c1F,"inconclusive: 32.6 µM [inhibitor, partial curve, poor fit]",
CCCCC(CC)CNC(=O)CCCCCn1c(=O)[nH]c2ccsc2c1=O (configuration not stated),"inconclusive: 11.6 µM [inhibitor, partial curve]",
CCCN(CC(=O)Nc1ccccc1C)C(=O)c1ccc2[nH]c3c(c2c1)CC(C)CC3 (configuration not stated),active: 20.6 µM,
CCCC(=O)Nc1ccc2oc(-c3ccc(O)c(Br)c3)nc2c1,,inactive: -15.1%
CCOc1ccccc1N(C)C(=O)c1nn(-c2ccc(OC)cc2OC)c(=O)c2ccccc12,,inactive: -28.9%
O=C(CO/N=C/c1ccc(OC(F)F)cc1)NCc1ccc(F)cc1,,inactive: -2.12%
C[C@]12c3[nH]c4cc(-c5ccco5)ccc4c3CCN1C(=O)[C@@H](CC(=O)NCCCn1ccnc1)C[C@@H]2C(=O)N1CCCCC1,"inconclusive: 29.1 µM [inhibitor, single point]",

SMILES,Potency,"activity change, negative = growth inhibition"
Cc1[nH]c2ccccc2c1C(=O)CSc1nc2cc(S(=O)(=O)N3CCCCC3)ccc2o1,active: 23.1 µM,
COc1cccc(OCC(O)CN2CCc3ccccc3C2)c1 (configuration not stated),"inconclusive: 16.4 µM [inhibitor, single point]",
COCC(=O)N1CCC(Oc2ccc(C(=O)NCCc3ncccc3C)cc2)CC1,,inactive: -8.59%
O=C(CSc1nc2c(oc3ccccc32)c(=O)n1-c1ccccc1)Nc1ccc(F)c(Cl)c1,"inconclusive: 25.9 µM [inhibitor, single point]",
CNCCCOc1cc(C)cc(C)c1C,"inconclusive: 18.4 µM [inhibitor, single point]",
CN(CCCC(=O)O)c1ccc(N=Nc2ccc([N+](=O)[O-])cc2)cc1,"inconclusive: 7.31 µM [inhibitor, partial curve]",
Nc1ncc(CN2CCCC(C(=O)Nc3ccc(-c4ccco4)cc3)C2)cn1 (configuration not stated),"inconclusive: 14.6 µM [inhibitor, single point]",
N#CC1(NC(=O)COC(=O)CSc2ccc(F)cc2)CCCCC1,,inactive: -20.6%
O=C(NCC1Cc2cccc(-c3nccs3)c2O1)c1ccnc(Cl)c1 (configuration not stated),"inconclusive: 16.4 µM [inhibitor, single point]",
CCOC(=O)c1nn(-c2ccc3c(c2)OCCO3)cc1O,,inactive: -1.46%
Cc1ccc(N(CC2=NCCN2)c2cccc(O)c2)cc1,"inconclusive: 33.5 µM [inhibitor, single point] [middle of 4 runs]",
CCOC(=O)c1c(NC(C)=O)c2c3c(sc2n1Cc1cc(C)ccc1C)CCCC3,active: 5.8 µM,
CCCCCn1c(CNC(=O)CC)nc2ccccc21,"inconclusive: 29.1 µM [inhibitor, single point]",
Cc1ccccc1CSc1ccc2nnc(-c3ccccn3)n2n1,,inactive: -23.3%
CO[C@@H]1CN(C)C(=O)c2cc(NC(=O)Nc3ccc4c(c3)OCO4)ccc2OC[C@@H](C)N(C)C[C@H]1C,,inactive: 12.1%
CC(C)CC1C(=O)N(Cc2cn(Cc3ccco3)nn2)CCS(=O)(=O)N1Cc1ccc(-c2ccncc2)cc1 (configuration not stated),active: 20.6 µM,
COc1cc(C)ccc1S(=O)(=O)NC(=O)C1(C)CCN1C(=O)c1ccc(C(F)(F)F)nc1C (configuration not stated),,inactive: 5.79%
CCCSc1nnc(NC(=O)Nc2ccc(F)cc2)s1,active: 20.6 µM,
Cc1ccc(C(=O)Nc2ccccc2C(=O)NCC2CCCO2)cc1 (configuration not stated),,inactive: -8.49%
CCOc1ccccc1NC(=O)Cn1c(=O)n(Cc2ccco2)c(=O)c2sc3ccccc3c21,,inactive: -27.9%
CC(=O)NC(NC(=S)Nc1ccc(N=Nc2ccccc2C)cc1C)C(Cl)(Cl)Cl (configuration not stated),"inconclusive: 29.1 µM [inhibitor, single point]",
Cc1ccc(OCc2nnc(SCC(=O)Nc3cccc4ccccc34)n2-c2ccccc2)cc1,"inconclusive: 29.1 µM [inhibitor, single point]",
CN(CC(=O)NCCc1ccccc1)S(=O)(=O)c1ccc(Br)s1,,inactive: 3.81%
NC1(C#Cc2ccc3oc(=O)c(-n4cc(-c5ccsc5)nn4)cc3c2)CCCCC1,active: 8.2 µM,

SMILES,Potency,"activity change, negative = growth inhibition"
CCc1nc(SCC(=O)Nc2ccc(N(C)C)cc2)n[nH]1,active: 4.61 µM,
Cc1ccc(S(=O)(=O)NCCC(=O)Nc2ccc(Cl)c(Cl)c2)cc1,"inconclusive: 18.4 µM [inhibitor, single point]",
Cc1ccccc1-c1cnc(C(O)c2c(C)cccc2C)[nH]1 (configuration not stated),"inconclusive: 32.6 µM [inhibitor, partial curve, poor fit]",
CN(C)c1nc(SCCOC(=O)c2ccccc2)nc(N(C)C)n1,,inactive: -22.6%
COc1ccccc1N(CC(=O)Nc1ccccc1C(F)(F)F)S(=O)(=O)c1ccc(C)cc1,"inconclusive: 20.6 µM [inhibitor, single point]",
Cc1ccc(C)c(N2CCN(C(=O)Cn3nc(C)c4sc5ccccc5c4c3=O)CC2)c1,"inconclusive: 29.1 µM [inhibitor, single point]",
CCO[C@@H]1OC(C(N)=O)=C[C@H](c2coc3ccccc3c2=O)[C@H]1CCCO,,inactive: 15.5%
CCOC(=O)c1c(C)n(C)c2ccc(OC)c(NC(=O)CN3CCN(Cc4ccccc4)CC3)c12,"inconclusive: 23.1 µM [inhibitor, single point]",
COc1ccc(N2CC(NC(=O)COc3cccc(C)c3)CC2=O)cc1OC (configuration not stated),,inactive: -27.7%
Cc1ccc(CNc2nc(CN3CCCCC3c3cccnc3)nc3ccccc23)o1 (configuration not stated),"inconclusive: 29.1 µM [inhibitor, single point]",
CCc1ccc(-c2ccc(SCC(=O)Nc3nnc(C)s3)nn2)cc1,,inactive: -17.2%
COc1cc(NC(=O)c2ccccc2F)c(OC)cc1NC(=O)CN1CCCCC1,"inconclusive: 16.4 µM [inhibitor, single point]",
CC(C)(C)S(=O)(=O)c1cnc2c(-c3ccsc3)cnn2c1N,,inactive: -0.656%
Nc1nc(N)nc(-c2cc(F)ccc2O)n1,"inconclusive: 25.9 µM [inhibitor, single point]",
Cc1oc2ccc(O)c(CN3CCCCCC3)c2c1C(=O)Nc1cccc(C(F)(F)F)c1,active: 3.66 µM,
O=C(Nc1ccc2oc(-c3ccccc3F)nc2c1)c1ccco1,"inconclusive: 16.4 µM [inhibitor, single point]",
O=[N+]([O-])c1ccc(N/N=C2\CC3CC=CC23)c([N+](=O)[O-])c1 (configuration not stated),active: 13 µM,
CCCN(CC(=O)Nc1ccccc1OC)C(=O)c1ccc2[nH]c3c(c2c1)CC(C)CC3 (configuration not stated),"inconclusive: 16.4 µM [inhibitor, single point]",
CCCCN1CC(COCc2ccccc2)Oc2cc(Br)ccc2S1(=O)=O (configuration not stated),"inconclusive: 16.4 µM [inhibitor, single point]",
CCC(O)c1nc2ccccc2n1Cc1cc(C)ccc1C (configuration not stated),"inconclusive: 23.1 µM [inhibitor, single point]",
Cc1c(C(C)C)c(=O)n(-c2ccccc2)n1C,,inactive: 5.83%
O=C(Nc1ccc2c(c1)OCCO2)C(c1ccncc1)n1c(=O)c(-c2cc3ccccc3[nH]2)nc2ccccc21 (configuration not stated),"inconclusive: 20.6 µM [inhibitor, single point]",
CCOC(=O)N(C)c1c(CC)nc2c(OCc3ccc(F)c(F)c3)cccn12,"inconclusive: 25.9 µM [inhibitor, single point]",
N#CC1(Cc2ccccc2)c2ccccc2C=CN1C(=O)c1ccccc1 (configuration not stated),"inconclusive: 18.4 µM [inhibitor, single point]",
